Measured values from paper PMC7819943, “Rice protein-binding microarrays: a tool to detect cis-acting elements near promoter regions in rice”.
Some of the results follow.

target: T1, OsWOX13 (Oryza sativa, UniProt Q5QMM3 1-267); test: protein-binding microarray (RPBM); PBS, 2% BSA, 51.3 ng/ul salmon testes DNA, 50 uM zinc acetate, 200 nM TF, 25 C, 1 h; high values mean tight binding; details: protein: recombinant; tags: N-terminal polyhistidine and DsRed monomer fusion (pET32a); label: CyDye5-dUTP incorporated in the synthesized complementary strand; 3' TTTTT single-stranded linker to array surface; dsDNA, one strand shown
T1 sequence: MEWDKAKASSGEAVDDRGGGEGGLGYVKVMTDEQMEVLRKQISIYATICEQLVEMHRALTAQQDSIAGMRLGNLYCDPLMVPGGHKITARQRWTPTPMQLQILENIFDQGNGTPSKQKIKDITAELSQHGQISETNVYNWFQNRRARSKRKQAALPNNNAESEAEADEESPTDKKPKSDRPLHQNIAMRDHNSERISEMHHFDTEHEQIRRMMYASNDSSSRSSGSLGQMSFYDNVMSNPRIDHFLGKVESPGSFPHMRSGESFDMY
Summary of the method: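 A custom Agilent array was converted to double-stranded form by primer extension with Cy5-dUTP and blocked with 2% BSA. Protein at 200 nM in PBS with 2% BSA, salmon testes DNA and 50 µM zinc acetate was applied for 1 h at 25 °C, followed by washing. The proteins were polyhistidine–DsRed N-terminal fusions of transcription factors, expressed in E. coli BL21-CodonPlus and Ni–NTA-purified. The binding signal is per-feature fluorescence intensity (arbitrary units) from an Axon 4000B scanner.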

Row | Sequence | binding signal
1 | TCCTGCGGTCCAATCAAACGGCAATTTCTGTGTTTTGCAACGGAGTCACCTAGTGCAG | 5640 fluorescence intensity (a.u.)
2 | ATACGGATTGAACACTTTCTAGGACTAAGAATCGGGTAAACGGAGTCACCTAGTGCAG | 3710 fluorescence intensity (a.u.)
3 | TAATTGGACTTAATTATCATCACCATATTAATATATTAGGCGGAGTCACCTAGTGCAG | 23800 fluorescence intensity (a.u.)
4 | ATGAATGAATGATGGAATCTTACTGGAATCTGTCGGAAATCGGAGTCACCTAGTGCAG | 8860 fluorescence intensity (a.u.)
5 | TCATAAATTATTTATAATTGCCTTGCTTAATTTACGCCTTCGGAGTCACCTAGTGCAG | 28900 fluorescence intensity (a.u.)
6 | AATAGCTAATACTTAATTAATCACGCGCTAATGGATCGCTCGGAGTCACCTAGTGCAG | 6150 fluorescence intensity (a.u.)
7 | TGTACAGTAAACTGATTAGCTCCTGCACTTCAGTTAATTGCGGAGTCACCTAGTGCAG | 20800 fluorescence intensity (a.u.)
8 | AGTTTGATTTACAAGTGCTTTCATATGTATGTTTGTTTTACGGAGTCACCTAGTGCAG | 12400 fluorescence intensity (a.u.)
9 | AGTACTGATTATATCCCCTAATAAAAGAAACATGAAGCAACGGAGTCACCTAGTGCAG | 5590 fluorescence intensity (a.u.)
10 | GAAAATTTAAACCGACATAAACAAATTTTCGAATATTTATCGGAGTCACCTAGTGCAG | 3880 fluorescence intensity (a.u.)
11 | ATATATATATATATATATATACATACATATACACACACACCGGAGTCACCTAGTGCAG | 7300 fluorescence intensity (a.u.)
12 | TTATTAAATTGGTTATAAATGAATTGTAGCTGGTTGATGGCGGAGTCACCTAGTGCAG | 50000 fluorescence intensity (a.u.)
13 | TGATTAATCAAGAGCATTTTGCACCATTAGTCGTTGGATGCGGAGTCACCTAGTGCAG | 3190 fluorescence intensity (a.u.)
14 | TTGTTGATAACCGATAATTTGGTAAATTATTGATTTTATTCGGAGTCACCTAGTGCAG | 19900 fluorescence intensity (a.u.)
15 | CTTGATTATTTCAATCTTGGAAACTGCAGGTGGAGAGAGGCGGAGTCACCTAGTGCAG | 46000 fluorescence intensity (a.u.)
16 | ACAATCCACTAACTGGAATTACTTCTATAGAGGAGCACACCGGAGTCACCTAGTGCAG | 4390 fluorescence intensity (a.u.)
17 | ATCTTTATAATTTCTTTGTTGACATGCAGAGTGTCCGTTGCGGAGTCACCTAGTGCAG | 8960 fluorescence intensity (a.u.)
18 | GTTCTTGATTGCGCCGCGTTGATATGTGAATTTAGCAGCTCGGAGTCACCTAGTGCAG | 35400 fluorescence intensity (a.u.)
19 | CCTATTGTAATTTCTTAATGTTGTAAAGGCGATGTACCGACGGAGTCACCTAGTGCAG | 4720 fluorescence intensity (a.u.)
20 | TTGTGATTTAATTTATCATCAACTATTCTTTTAAGCATGACGGAGTCACCTAGTGCAG | 40500 fluorescence intensity (a.u.)
21 | CCTAAACTAATCTCAAACAATCTAACCTATAAGCAAGCAGCGGAGTCACCTAGTGCAG | 8610 fluorescence intensity (a.u.)
22 | ATGCAATTGACTAAGCAAAAGGGAGCAGTCGTCCTAGTGGCGGAGTCACCTAGTGCAG | 7920 fluorescence intensity (a.u.)
23 | ATAAAACAAATTATAGATTCCACCTATAAACTGCGAGATGCGGAGTCACCTAGTGCAG | 8890 fluorescence intensity (a.u.)
24 | CTCTAATTTTAACCAAAATACAAAATTTACGCTGAACTAACGGAGTCACCTAGTGCAG | 14700 fluorescence intensity (a.u.)
25 | AATAAATTTAACCACTGTAACAATGTATTTCTCTCAGAATCGGAGTCACCTAGTGCAG | 6380 fluorescence intensity (a.u.)
26 | TATCATTGATTTCACTAAGGAGTGTGGAAGTCTGGGATCTCGGAGTCACCTAGTGCAG | 3270 fluorescence intensity (a.u.)
27 | TGGATTAAACTAATTTACTGATAAGGTGCGTACAAAATTGCGGAGTCACCTAGTGCAG | 9850 fluorescence intensity (a.u.)

Row | Sequence | binding signal
28 | TCATTAACTTAATGAAGAACAAAACCCCATCATATCCGTTCGGAGTCACCTAGTGCAG | 4370 fluorescence intensity (a.u.)
29 | AGCTATTAGTAGATTGGCTATAAATGAATTGGAGTTAGTACGGAGTCACCTAGTGCAG | 14900 fluorescence intensity (a.u.)
30 | GAACTAATTTACTCCTAATCGTGCACTCCTTCACCACCAACGGAGTCACCTAGTGCAG | 24000 fluorescence intensity (a.u.)
31 | CCATACAATTGATTACTGGGGCAAAGCTGTCTTAAATACGCGGAGTCACCTAGTGCAG | 28100 fluorescence intensity (a.u.)
32 | GGCAAAACCGTAAATTTATCACATCCTGGTTTGCGCTGTGCGGAGTCACCTAGTGCAG | 3390 fluorescence intensity (a.u.)
33 | ACCACCTGATAGCTAAGCTAATTAATTAAGCTAAGTACACCGGAGTCACCTAGTGCAG | 16600 fluorescence intensity (a.u.)
34 | TAGTAGACTAGCAGGAGTCCACATCGTCCCATCAACGCTGCGGAGTCACCTAGTGCAG | 10100 fluorescence intensity (a.u.)
35 | ATTACTATGATTACTATAATGTACCCTCAAAGCGTGTAGACGGAGTCACCTAGTGCAG | 7510 fluorescence intensity (a.u.)
36 | GTAAACTGCAATCAATCAGCCATTAAAATCTCATGCTCTGCGGAGTCACCTAGTGCAG | 60000 fluorescence intensity (a.u.)
37 | ATATGTTAAATATTTAATTAAATATTCGATGTGACCGGAGCGGAGTCACCTAGTGCAG | 17600 fluorescence intensity (a.u.)
38 | CATGAACCTCCAAATTAAATAAATTATTTATTTCATTATTCGGAGTCACCTAGTGCAG | 5260 fluorescence intensity (a.u.)
39 | CTAATTATAAATATTAAACGTAGACTATTAATAAAACCCACGGAGTCACCTAGTGCAG | 5390 fluorescence intensity (a.u.)
40 | AAAACTAATGTAACTTAATATTAACTACTCCCCTTTCTCACGGAGTCACCTAGTGCAG | 6350 fluorescence intensity (a.u.)
41 | GTTTGTAATAATTAATATTCGGTTGATCATTTGCGGCTTGCGGAGTCACCTAGTGCAG | 7130 fluorescence intensity (a.u.)
42 | CAATCATTGATTGTTACTTTGTTAGTAATTGGTTAGTATACGGAGTCACCTAGTGCAG | 30100 fluorescence intensity (a.u.)
43 | TGGTAATGAATGTTAACTATCATGAGGGGTGTTATTTACACGGAGTCACCTAGTGCAG | 8500 fluorescence intensity (a.u.)
44 | ATGACTATTTTCACCTATAATTATAAGTTATGGAACAATACGGAGTCACCTAGTGCAG | 4820 fluorescence intensity (a.u.)
45 | CTTAAATTATATAAAGATTTAAGTCCAAGTTTATGGAGTTCGGAGTCACCTAGTGCAG | 37500 fluorescence intensity (a.u.)
46 | AATCGTACCATACAAATTACAAATTAAACACCTTCAGATCCGGAGTCACCTAGTGCAG | 4020 fluorescence intensity (a.u.)
47 | GTAGATGACAGCAACAAATTATATGAGCGTGTGCTTTCAACGGAGTCACCTAGTGCAG | 12300 fluorescence intensity (a.u.)
48 | ACTTGATTTATCACCAAATATTCTTTAAGCATGATGTAAGCGGAGTCACCTAGTGCAG | 38700 fluorescence intensity (a.u.)
49 | GGCTGGTGATTGGGCTCAGGCAAGGTGATTGGGCTGGGCTCGGAGTCACCTAGTGCAG | 33900 fluorescence intensity (a.u.)
50 | TACTCAATCTATTGTACTGTTTGAACTCATGACAATTAAACGGAGTCACCTAGTGCAG | 3230 fluorescence intensity (a.u.)
51 | CGATCTCTCCTGTCTAATTTGTGTCTCGTAGAACCTACTCCGGAGTCACCTAGTGCAG | 3850 fluorescence intensity (a.u.)
52 | AGCCTATTTGCGCGATGATTTGACAATGTGATGCTACAGTCGGAGTCACCTAGTGCAG | 4260 fluorescence intensity (a.u.)
53 | TGAAATTAAACGGCATTACGTCCATGGAAATGGTTCTCGACGGAGTCACCTAGTGCAG | 3500 fluorescence intensity (a.u.)
54 | GAACAAAATGACAATTTGGAACACCTGCCAATTTCGTTAGCGGAGTCACCTAGTGCAG | 3630 fluorescence intensity (a.u.)
